Source: article PMC12040169 (PLOS Biology, 2025)
This is one part of the list.

The compounds below were run on T1, C. trachomatis L2/434/Bu expressing GFP (CTL2-GFP). Settings: total inclusion area; 28.5 h, 10 µM; inhibitor.
T1 construct: L2/434/Bu GFP intracellular growth in HeLa cells
Parameters: species or system HeLa; C. trachomatis total inclusion area by high-content imaging, normalised to DMSO
Procedure, shortened: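 Following bulk GFP and resorufin fluorescence reads, infected cells were fixed, Hoechst-stained and imaged on a high-content platform. Inclusion total area and number per well served as growth proxies; nuclei counts indicated host viability. MICs were derived as for the fluorescence assay.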

Row | Compound | % of control remaining
1 | CCC(C)(Sc1nc(C)ccc1C#N)C(=O)O (stereo not drawn) [CBK287098] | 99.8976
2 | CCN(CC(=O)NC(C)(C)C)Cc1nc(-c2cccc(Br)c2)no1 [CBK304230] | 34.4913
3 | CN(CC(=O)O)C(=O)OCc1ccccc1 [CBK012752] | 95.649
4 | O=C(Nc1sc2c(c1C(=O)NCc1ccco1)CCCC2)c1sc2ccccc2c1Cl [CBK265086] | 108.59
5 | COc1cc(-c2cnc(N)c(NCC(C)(C)CO)n2)cc(OC)c1OC [CBK063523] | 95.0569
6 | CCCCC(c1cccnc1)N(C)C(=O)CCc1ccnn1C (stereo not drawn) [CBK306664] | 98.5774
7 | COc1cc(C(=O)Oc2cccc(Nc3ncnc4ccccc34)c2)cc(OC)c1OC [CBK264908] | 100.986
8 | C[C@H](Nc1cncc(-c2cccs2)n1)c1ccccc1 [CBK065719] | 97.0873
9 | CCc1c(C)nc(C)nc1N1CCCn2nc(C(O)C3CC3)cc2C1 (stereo not drawn) [CBK306778] | 56.9113
10 | COc1cnc(-c2cnn(C)c2)c(NC(=O)C2CC2)n1 [CBK145328] | 95.2382
11 | Cc1cc(CS(=O)(=O)N2CCOCC2c2cccc(F)c2)no1 (stereo not drawn) [CBK304093] | 10.1767
12 | O=C(Nc1cc(Cl)cc(Cl)c1)c1ccc([N+](=O)[O-])s1 [CBK066840] | 71.2205
13 | COc1ccc2c(c1)C1(CC(=O)N(CC(=O)N(C)OC)C1=O)C(=O)N2CCCCOc1ccccc1 (stereo not drawn) [CBK076032] | 106.589
14 | O=C(Nc1nnc(C2=COCCO2)o1)c1cc(Cl)cc(Cl)c1 [CBK287418] | 111.209
15 | COc1ccc(-c2c(C)nc(N)nc2-c2ccc(OC)cc2O)cc1 [CBK288186] | 59.4358
16 | CSc1ncc(Cl)c(C(=O)Nc2nnc(SC/C=C/c3ccccc3)s2)n1 [CBK268691] | 133.366
17 | Cc1noc(C)c1C(=O)N1C2CCC1CC(c1ccc(F)cc1)C2 (stereo not drawn) [CBK283738] | 81.9266
18 | O=C(CCc1cccnc1)NC1CCCC1 [CBK200239] | 93.3108
19 | COc1cccc(C2C(C(=O)c3ccc(Br)cc3)=C(O)C(=O)N2CCCN(C)C)c1 (stereo not drawn) [CBK264921] | 105.466
20 | CC(C)c1nnc(C2(c3ccc(Br)cc3)CCOCC2)o1 [CBK306230] | 137.393
21 | COc1ccc(C(C)C)cc1-c1cnc2[nH]c(=O)n(C3CC3)c2n1 [CBK064915] | 107.29

Row | Compound | % of control remaining
22 | CCN(CC)C(=O)Cn1nc2c(C)cc3cc(C)ccc3n2c1=O [CBK283871] | 106.311
23 | Cc1nnc(N/N=C/c2ccc(OC3CCCC3)cc2)nc1O [CBK058025] | 73.7845
24 | Cc1ccc(NC(=O)c2cc(NC(=O)C3CC=CCC3C(=O)O)ccc2N2CCOCC2)cc1Cl (stereo not drawn) [CBK265323] | 94.8985
25 | Cc1ccc(C)c(-c2nc(-c3cccnc3)no2)c1 [CBK288018] | 67.5336
26 | Cn1nc(C2CCN(C(=O)C3CCCCC3)CC2)c2cccnc21 [CBK284897] | 92.2222
27 | Cc1nn(CC(=O)N(C)CCCc2nccn2C)c(=O)c2ccccc12 [CBK307087] | 115.99
28 | CCOC(=O)CC(C)NS(=O)(=O)c1ccc(OC(F)(F)F)cc1 (stereo not drawn) [CBK044954] | 137.396
29 | COc1ccc(NCc2cc(=O)oc3cc4c(cc23)CCC4)cn1 [CBK235362] | 95.0351
30 | COC(=O)[C@@H]1Cc2ncn(C(C)C)c2CN1C(=O)c1ccccc1 [CBK288987] | 104.733
31 | Cc1nn(C)c(C)c1CCC(=O)NCC1CN(c2ccccc2)CCO1 (stereo not drawn) [CBK307199] | 49.2868
32 | Cc1cc(COc2ccnc(N3CCCN(CC4CC4)CC3)n2)no1 [CBK084073] | 80.1738
33 | C=CCNC(=O)CN1CCC(c2ccc(OC)cc2)CC1 [CBK283560] | 64.1954
34 | O=C(N[C@H]1CO[C@H]2[C@@H]1OC[C@@H]2n1cc(-c2ccccn2)nn1)c1ccc(C(F)(F)F)cc1 [CBK289507] | 93.0829
35 | CCCC/C=C/c1ccc(Nc2ccc(N3CCOCC3)cc2)nc1 [CBK036886] | 86.7182
36 | C[C@]12CN(Cc3ccccc3)C[C@H]1NC(=O)c1ccccc1C2=O [CBK284703] | 109.357
37 | CN(C)c1ccc(-c2nccnc2NCC(O)COc2ccccc2)cc1 (stereo not drawn) [CBK036928] | 89.844
38 | COc1ccc(C)cc1NC(=O)CN(c1ccccc1)S(=O)(=O)c1ccc(F)cc1 [CBK268223] | 88.1437
39 | CCc1noc(C)c1C(=O)NCCN1CC(C)CC(C)C1 (stereo not drawn) [CBK282081] | 84.6386
40 | CCOc1cc(C(c2c[nH]c3ccccc23)c2c[nH]c3ccccc23)ccc1OCC(=O)O [CBK264450] | 108.552
41 | Cc1cc(C)nc(Nc2n[nH]c(-c3cccc4ccccc34)n2)n1 [CBK266451] | 142.778
42 | O=C(c1ccc2ccccc2n1)N1CCc2ccccc21 [CBK200404] | 103.087

Row | Compound | % of control remaining
43 | Cc1ccc2cn[nH]c2c1 [CBK016109] | 64.9305
44 | CCc1nnc(NS(=O)(=O)c2ccc(NCc3cc(Cl)cc(Cl)c3O)cc2)s1 [CBK126494] | 103.015
45 | Cc1ccn2cc(C(=O)NCCSc3nccn3C)nc2c1 [CBK281417] | 76.5067
46 | COc1ccccc1-c1cnc(N)c(N[C@@H](C)c2ccccc2)n1 [CBK063721] | 110.84
47 | CNS(=O)(=O)c1cccc(C(=O)N(C)Cc2ccsc2)c1 [CBK303993] | 72.0781
48 | CCC1CCc2c(sc(NC(=O)c3cnccn3)c2C(N)=O)C1 (stereo not drawn) [CBK262649] | 101.472
49 | CCOC(=O)c1cnc2c(C)cc(C)cc2c1NCCN1CCOCC1 [CBK264757] | 102.885
50 | COCCn1c(SC)nc2sc(-c3ccccc3)cc2c1=O [CBK295200] | 114.339
51 | O=S(=O)(c1ccc(F)c(F)c1F)n1ccc2c(N3CCNCC3)nccc21 [CBK059066C] | 104.218
52 | Cc1ccc(C23CC4CC(CC(C(=O)NC(C(=O)O)C(C)C)(C4)C2)C3)cc1 (stereo not drawn) [CBK264924] | 118.137
53 | C=CCSc1nnc(-c2ccc(OCCC)cc2)[nH]1 [CBK267323] | 85.8079
54 | CCN(Cc1ccncc1)C(=O)Nc1cccnc1 [CBK145053] | 106.15
55 | CCn1cc(C(=O)O)c(=O)c2cnc(N3CCN(C(=S)NC(=O)c4c(-c5ccccc5)noc4C)CC3)nc21 [CBK267491] | 107.158
56 | COc1ccc(-c2cncc(N[C@@H](CO)C(C)C)n2)cc1 [CBK037941] | 118.029
57 | O=C(c1ccc2nc[nH]c2c1)N1CCC2(CCN(Cc3ccccc3)C2)C1 (stereo not drawn) [CBK136862] | 113.217
58 | OCCN1CCN(c2cc(Nc3ccc(Oc4ccccc4)cc3)nc3ccnn23)CC1 [CBK037185] | 141.879
59 | O=C1COc2ccc(S(=O)(=O)NCc3ccccc3)cc2N1 [CBK270156] | 98.0956
60 | Cc1nc(CN2CCC3(CC2)CN(C(=O)CO)c2ccccc23)cs1 [CBK131523] | 99.9172
61 | O=C(CCCN1C(=O)/C(=C\c2cccs2)SC1=S)Nc1cc(Cl)ccc1O [CBK263673] | 91.7094
62 | O=[N+]([O-])c1cccnc1Oc1cccc2cccnc12 [CBK002760] | 88.6565
63 | CCCC(=O)NC1CC(C)(C)Cc2nc(N3CCOCC3)ncc21 (stereo not drawn) [CBK306883] | 67.9109

Row | Compound | % of control remaining
64 | N#Cc1ccnc(N2CCC3(CCCN(CC4CCCCC4)C3=O)C2)c1 (stereo not drawn) [CBK306561] | 43.0509
65 | CCN(CC)CCn1c(NC(=O)c2c(Cl)nc3ccccn23)nc2ccccc21 [CBK298305] | 77.2478
66 | O=C(Nc1ccc2n(c1=O)C[C@H]1C[C@@H]2CN(C(=O)Nc2ccc(F)cc2)C1)c1ccco1 [CBK289205] | 111.399
67 | O=C(CSc1nnc(-c2ccncc2)n1-c1ccccc1)Nc1ccnc2ccccc12 [CBK267900] | 85.505
68 | CCOC(=O)N1CCN(Cn2nc(COc3ccccc3)n(C)c2=S)CC1 [CBK265148] | 76.2825
69 | COc1ccc(Cl)cc1CN(C)C(=O)c1ccc[nH]c1=O [CBK305933] | 51.3676
70 | Cn1ccc(C2CCCCCN2C(=O)c2c(Cl)cnn2C)n1 (stereo not drawn) [CBK284914] | 98.4663
71 | COc1ccc(C2CC(c3nc4ccccc4[nH]3)=NN2C(=O)CCN2CCCCC2)cc1 (stereo not drawn) [CBK267673] | 91.005
72 | N#Cc1cc(Cl)ccc1CN1CCCCC1c1[nH]ncc1C(N)=O (stereo not drawn) [CBK304746] | 62.2923
73 | CCOc1ccccc1OCC(C)CNC (stereo not drawn) [CBK026242G] | 74.5204
74 | O=C(O)CCC(NC(=O)c1ccc(-c2ccc(Cl)cc2)s1)C(=O)O (stereo not drawn) [CBK295171] | 132.013
75 | Fc1ccc(CN(Cc2ccsc2)[C@@H]2COC[C@H]2c2ccc(F)cc2)cc1 [CBK286486] | 120.493
76 | CCn1c(SCC(=O)Nc2nc(C)c(C(=O)OC)s2)nc2c1c(=O)n(C)c(=O)n2C [CBK127470] | 95.3208
77 | Cc1cc2c([nH]c3ccccc32)c(C)n1 [CBK262689] | 75.7078
78 | Cc1nn(-c2nc3ccccc3s2)c(O)c1C1OC(=O)c2ccccc21 (stereo not drawn) [CBK267220] | 104.286
79 | OCc1ccccc1-c1cncc(N2CCCC2CO)n1 (stereo not drawn) [CBK065333] | 131.801
80 | N#CC1(NC(=O)c2ccn(-c3cccc(F)c3)n2)CCSC1 (stereo not drawn) [CBK304566] | 91.1133
81 | CC1CN(C(=O)NC2CCCCC2)C(c2ccccc2)ON1C (stereo not drawn) [CBK026650] | 85.6752
